{
  "source": "PubChem BioAssay AID588342",
  "about": "(National Center for Advancing Translational Sciences (NCATS), 2011)",
  "note": "The whole screen tested about 360,000 compounds, of which about 25,000 (6.9%) were called active. Inconclusive means that the source gave no clear call. Such entries were picked first, then a sample of the others. Calls follow the shape of the dose curve; as a rule, active = well fitted inhibition curve with a large enough effect; inconclusive = small, poorly fitted or top-dose-only effect; inactive = flat fitted curve, though single readings scatter. Where the call is inconclusive, the potency comes from a doubtful curve fit. Potency is read from the fitted curve at half-maximal effect; tags tell the direction and shape of the fitted curve.",
  "data": [
    {"biological_target": "Luciferin 4-monooxygenase (Photinus pyralis) (UniProt P08659)", "sequence (P08659 whole entry, looked up)": "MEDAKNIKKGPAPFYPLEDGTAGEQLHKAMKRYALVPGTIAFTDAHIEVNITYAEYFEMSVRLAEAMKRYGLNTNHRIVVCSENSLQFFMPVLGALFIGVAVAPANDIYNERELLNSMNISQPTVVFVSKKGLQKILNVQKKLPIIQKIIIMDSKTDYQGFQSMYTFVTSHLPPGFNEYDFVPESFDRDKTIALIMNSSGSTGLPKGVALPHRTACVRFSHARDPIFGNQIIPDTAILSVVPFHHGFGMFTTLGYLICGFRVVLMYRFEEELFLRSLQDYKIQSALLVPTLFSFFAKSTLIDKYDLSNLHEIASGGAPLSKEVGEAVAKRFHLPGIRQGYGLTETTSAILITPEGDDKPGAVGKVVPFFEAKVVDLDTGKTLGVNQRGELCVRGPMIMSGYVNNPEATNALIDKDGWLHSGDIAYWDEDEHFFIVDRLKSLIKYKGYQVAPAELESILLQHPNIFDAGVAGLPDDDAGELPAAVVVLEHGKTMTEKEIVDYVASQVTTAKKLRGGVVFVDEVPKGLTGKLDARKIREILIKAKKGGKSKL", "experiment": "qHTS profiling assay for firefly luciferase inhibitor/activator using purifed enzyme and Km concentrations of substrates (counterscreen for miR-21 project); also: nearly all actives have a fitted effect of over 55% in size;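 as to activity change, negative = inhibition: plate controls were vehicle for no effect and reference inhibitor for full effect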", "details": "purified FLuc, luminescence inhibition; activity change, negative = inhibition: at 57.5 µM (top of the series)", "method_in_brief": "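Purified P. pyralis luciferase (10nM final) with 10uM D-luciferin and 10uM ATP (Km levels) in 50mM Tris acetate pH 7.5, 10mM Mg acetate, 0.01% Tween-20, 0.05% BSA; qHTS 6-point titration, ~60 µM downward; luminescence read.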", "values": [
      {"smiles": "O=C(CSc1ncccc1C(=O)O)c1ccccc1F", "Potency": "inconclusive: 26.9 µM [inhibitor, partial curve]"},
      {"smiles": "Cc1cc(N2CCN(c3ccccn3)CC2)n2cc(-c3ccccc3)nc2n1", "Potency": "inconclusive: 30.1 µM [inhibitor, single point]"},
      {"smiles": "CCc1ccc2nc(N3CCN(C(=O)c4ccco4)CC3)sc2c1", "Potency": "active: 10.7 µM"},
      {"smiles": "Cc1ccc(C(C[N+](=O)[O-])n2nc(C)cc2C)cc1", "note": "(stereo not given)", "Potency": "inconclusive: 12 µM [inhibitor, partial curve, poor fit]"},
      {"smiles": "CCOC(=O)c1ccc(CNC(=O)c2cc(COc3ccccc3SC)on2)o1", "Potency": "active: 8.49 µM"},
      {"smiles": "Cc1ccc(C(=O)Nc2nc(-c3ccccn3)cs2)o1", "Potency": "active: 19 µM"},
      {"smiles": "C/C=C\\C=C/C(=O)Nc1cccc(C2=NOC3(C2)C[C@@H](C(N)=O)N(C(=O)/C=C/CC)C3)c1", "note": "(stereo not given in full)", "Potency": "active: 16.9 µM"},
      {"smiles": "Cc1ccc(Nc2c([N+](=O)[O-])c(=O)oc3ccccc23)cc1C", "Potency": "inconclusive: 23.9 µM [inhibitor, partial curve, poor fit]"},
      {"smiles": "Cc1nc2ccc(S(=O)(=O)CCC(=O)Nc3ccccc3C)cc2s1", "activity change, negative = inhibition": "inactive: -0.756%"},
      {"smiles": "O=C(CC1NCCNC1=O)Nc1cccc(F)c1", "note": "(stereo not given)", "activity change, negative = inhibition": "inactive: 0.509%"},
      {"smiles": "CCOc1cc(/C=C(/C#N)c2nc3ccccc3[nH]2)ccc1OCc1ccc(C(=O)O)o1", "Potency": "inconclusive: 21.3 µM [inhibitor, single point]"},
      {"smiles": "Cc1ccc2c(cnn2C(=O)CCCC(=O)NCc2cccc(F)c2)c1", "Potency": "inconclusive: 23.9 µM [inhibitor, single point]"},
      {"smiles": "COc1ccc(-n2nc(C(=O)N3CCN(Cc4ccc5c(c4)OCO5)CC3)c3ccccc3c2=O)cc1", "Potency": "inconclusive: 37.9 µM [inhibitor, partial curve, poor fit]"},
      {"smiles": "Cc1cccc2[nH]c3c(N4CCC5(CC4)OCCO5)ncnc3c12", "Potency": "inconclusive: 30.1 µM [inhibitor, partial curve, poor fit]"},
      {"smiles": "CC(=O)c1ccc(NC(=S)NCCc2ccc(S(N)(=O)=O)cc2)cc1", "activity change, negative = inhibition": "inactive: -16.9%"},
      {"smiles": "O=C(N/N=C/c1ccccc1O)c1ccncc1", "Potency": "inconclusive: 21.3 µM [inhibitor, partial curve, poor fit]"},
      {"smiles": "Cn1cccc1-c1cc(C(=O)N/N=C/c2cccc(O)c2)[nH]n1", "Potency": "inconclusive: 33.8 µM [inhibitor, single point]"},
      {"smiles": "COc1ccc(C2CC(c3ccccc3)=NN2C(=O)CSc2ncn[nH]2)cc1", "note": "(stereo not given)", "Potency": "inconclusive: 37.9 µM [inhibitor, partial curve, poor fit]"},
      {"smiles": "COc1ccc(NC(=O)CS(=O)(=O)c2ccccc2)cc1", "activity change, negative = inhibition": "inactive: -2.89%"},
      {"smiles": "COc1ccc2cc(CNc3ccc(OC)c(OC)c3)c(=O)n(CC(=O)Nc3ccc(C)cc3)c2c1", "activity change, negative = inhibition": "inactive: 2.86%"},
      {"smiles": "COC(=O)C(CC(=O)c1ccc(C)cc1)n1cccn1", "note": "(stereo not given)", "Potency": "inconclusive: 23.9 µM [inhibitor, partial curve, poor fit]"},
      {"smiles": "Cc1cc2c(cc1C)NC1=C(N2)OC(c2cccc(O)c2)C1=O", "note": "(stereo not given)", "Potency": "inconclusive: 23.9 µM [inhibitor, partial curve, poor fit]"},
      {"smiles": "N#CC1(NC(=O)COC(=O)c2cccc(-n3cnnn3)c2)CCCCC1", "activity change, negative = inhibition": "inactive: 3.97%"},
      {"smiles": "COc1ccccc1/C=C1\\Cc2ccccc2C1=O", "Potency": "active: 10.7 µM"},
      {"smiles": "COc1cc(NS(=O)(=O)c2ccc3c(c2)C(C)(C)C(=O)N3C)cc(OC)c1", "activity change, negative = inhibition": "inactive: 0.497%"},
      {"smiles": "CSc1nnc(-c2cc3ccccc3cc2O)n1C", "Potency": "inconclusive: 23.9 µM [inhibitor, partial curve, poor fit]"},
      {"smiles": "Cc1cccc(NC(=O)CSc2nc(C)c(Cc3ccccc3)c(=O)[nH]2)c1", "Potency": "inconclusive: 13.5 µM [inhibitor, partial curve]"},
      {"smiles": "Cc1cc(C)c2oc(-c3ccc(Cl)c(NC(=O)c4ccc(C#N)cc4F)c3)nc2c1", "Potency": "active: 16.9 µM"},
      {"smiles": "CCOc1cnc(-c2ccc(OC)cc2)o1", "Potency": "active: 9.53 µM"},
      {"smiles": "COc1cccc(/C=C2\\SC(=O)N(CCC(=O)NC3CCS(=O)(=O)C3)C2=O)c1", "note": "(stereo not given)", "Potency": "inconclusive: 26.9 µM [inhibitor, partial curve]"},
      {"smiles": "Cc1ccc(-c2nnc(CSc3nnc(C)s3)o2)cc1", "Potency": "inconclusive: 30.1 µM [inhibitor, single point]"},
      {"smiles": "CCCCNC(=O)COC(=O)c1c2c(nc3ccccc13)/C(=C/c1cccs1)CC2", "Potency": "active: 7.57 µM"},
      {"smiles": "CC(=O)Nc1ccc(S(=O)(=O)Nc2nc3ccccc3nc2Nc2cccc(S(N)(=O)=O)c2)cc1", "Potency": "inconclusive: 37.9 µM [inhibitor, single point]"},
      {"smiles": "CCOc1ccccc1NC(=O)CSc1cc(=O)n(CC)c2ccccc12", "activity change, negative = inhibition": "inactive: -18.7%"},
      {"smiles": "CCOc1ccc2oc(C(=O)O)c(C)c2c1", "Potency": "inconclusive: 37.9 µM [inhibitor, partial curve, poor fit]"},
      {"smiles": "Cc1ccsc1/C=N/NC(=O)c1ccc([N+](=O)[O-])cc1", "Potency": "inconclusive: 3.01 µM [inhibitor, full curve]"},
      {"smiles": "CCOc1ccc(C(=O)N/N=C(/C)C2C(=O)c3ccccc3C2=O)cc1", "Potency": "inconclusive: 26.9 µM [inhibitor, single point]"},
      {"smiles": "O=C(NCCCc1ccccc1)C(=O)c1c[nH]c2ccccc12", "Potency": "inconclusive: 37.9 µM [inhibitor, single point]"},
      {"smiles": "COc1ccc(/C=N/NC(=O)c2ccc(COc3ccccc3Cl)o2)cc1", "Potency": "active: 2.69 µM"},
      {"smiles": "N/C(=N\\OC(=O)c1cc(Cl)ccc1Cl)c1ccncc1", "Potency": "active: 13.5 µM"},
      {"smiles": "Cc1csc2c(=O)sc(NC(=O)c3cccs3)nc12", "Potency": "inconclusive: 30.1 µM [inhibitor, partial curve, poor fit]"},
      {"smiles": "Cc1sc2ncn(/N=C/c3ccco3)c(=O)c2c1C", "Potency": "active: 10.7 µM"},
      {"smiles": "CCCn1c(-c2ccc(OC)cc2)nc2nc3ccccc3nc21", "Potency": "inconclusive: 21.3 µM [inhibitor, partial curve]"},
      {"smiles": "Cc1ccccc1C(=O)Nc1cccc(C(=O)N/N=C/c2ccccn2)c1", "Potency": "inconclusive: 26.9 µM [inhibitor, partial curve]"},
      {"smiles": "O=C(NC(=S)N1CCCc2ccccc21)c1ccc(Br)cc1", "Potency": "inconclusive: 37.9 µM [inhibitor, partial curve, poor fit]"}
    ]}
  ]
}
